# Data reported in the antibiotic and cytotoxicity screens of Wong et al. (2023).
# This is one part of the list.
# Tests used:
# HSkMC = human skeletal muscle cells; experiment: cytotoxicity call (relative viability < 0.9); details: 10 µM
# S. aureus RN4220 = experiment: growth inhibition call (relative growth <= 0.2); details: 50 µM
Compound,cytotoxicity call (HSkMC),growth inhibition call (S. aureus RN4220)
CC(C)C(N)C(=O)OCCOCn1cnc2c(=O)[nH]c(N)nc21.Cl (configuration not stated),inactive,inactive
Cc1cc(C(=O)N2CCCC[C@@H]2CCOc2cccc(CN(C)Cc3cccc4cccnc34)c2)c(=O)[nH]c1C,inactive,inactive
C=CC[C@@H](CC(=O)N(CCO)Cc1ccccc1)C(=O)N[C@H](COC(=O)[C@@H](CC=C)CC(=O)OC(C)(C)C)Cc1c[nH]c2ccccc12,inactive,inactive
COc1ccccc1C(=O)Nc1ccc2c(c1)C(=O)N(C)[C@@H]1CC[C@@H](CC(=O)NCCc3ccncc3)O[C@H]1CO2,inactive,inactive
C[C@H]1CN([C@@H](C)CO)C(=O)c2cc(NC(=O)Nc3ccc(F)cc3)ccc2O[C@H]1CN(C)Cc1ccc(Cl)c(Cl)c1,inactive,inactive
Cc1ccc(S(=O)(=O)N(C)C[C@H]2Oc3c(NC(=O)C4CCOCC4)cccc3C(=O)N([C@@H](C)CO)C[C@H]2C)cc1,inactive,inactive
C[C@H]1CN([C@@H](C)CO)C(=O)Cc2cc(NC(=O)CCN3CCOCC3)ccc2O[C@@H]1CN(C)S(=O)(=O)c1ccc(Cl)cc1,inactive,inactive
C[C@H]1CN([C@@H](C)CO)C(=O)Cc2cc(NC(=O)Nc3ccc(C(F)(F)F)cc3)ccc2O[C@@H]1CN(C)Cc1ccc(Oc2ccccc2)cc1,active,inactive
C[C@H]1CN([C@@H](C)CO)C(=O)c2cc(NC(=O)Cc3cn(C)c4ccccc34)ccc2O[C@@H]1CN(C)S(C)(=O)=O,inactive,inactive
C[C@H]1CN([C@@H](C)CO)C(=O)Cc2cc(N(C)C)ccc2O[C@@H]1CN(C)S(=O)(=O)c1cn(C)cn1,inactive,inactive
COc1cccc(CN(C)C[C@@H]2OCc3ccccc3-c3c(n(C)c4ccccc34)C(=O)N([C@H](C)CO)C[C@@H]2C)c1,inactive,inactive
C[C@H](CO)N1C[C@H](C)[C@@H](CN(C)Cc2ccc(Oc3ccccc3)cc2)Oc2ccc(NS(=O)(=O)c3cccs3)cc2CC1=O,inactive,inactive
C[C@@H]1CN([C@@H](C)CO)C(=O)Cc2cc(NS(C)(=O)=O)ccc2O[C@H]1CN(C)C(=O)NC1CCCCC1,inactive,inactive
NC(=O)COc1ccccc1,inactive,inactive
C[C@@H]1CCCCO[C@H](CN(C)C(=O)NC2CCCCC2)[C@@H](C)CN([C@@H](C)CO)C(=O)c2cc(NS(=O)(=O)c3ccccc3)ccc2O1,inactive,inactive
C[C@@H]1CN([C@H](C)CO)C(=O)c2cc(NC(=O)Nc3ccccc3)ccc2O[C@@H](C)CCCCO[C@@H]1CN(C)Cc1ccc(C(=O)O)cc1,inactive,inactive
CO[C@H]1O[C@H](COC(=O)NCCCCCC(=O)NO)[C@H](OC(=O)Nc2ccccc2)[C@H](OC(=O)Nc2ccccc2)[C@H]1OC(=O)Nc1ccccc1,inactive,inactive
C[C@H](CO)N1C[C@H](C)[C@@H](CN(C)Cc2ccc(C(=O)O)cc2)Oc2ccc(NC(=O)Nc3ccc(C(F)(F)F)cc3)cc2C1=O,inactive,inactive
COCCN1C[C@H]2[C@H](OC)CCN(S(=O)(=O)c3cn(C)cn3)[C@H]2C1,inactive,inactive
Cc1noc(C)c1S(=O)(=O)Nc1ccc2c(c1)C(=O)N([C@@H](C)CO)C[C@H](C)[C@@H](CN(C)C(=O)NC1CCCCC1)O2,inactive,inactive
COc1ccc(S(=O)(=O)Nc2ccc3c(c2)C(=O)N([C@H](C)CO)C[C@H](C)[C@@H](CN(C)Cc2ccc(-c4ccccc4)cc2)O3)cc1,inactive,inactive
O=C(C[C@H]1CC[C@@H]2[C@H](COC[C@H](O)CN2S(=O)(=O)c2ccc(F)cc2)O1)N[C@H]1CCN(Cc2ccccc2)C1,inactive,inactive
COc1ccc([Si](C)(C)[C@@H]2[C@@H](CC(=O)N(CCO)Cc3ccccc3)O[C@]3(C(=O)N(Cc4cccc(N5CCC5=O)c4)c4ccccc43)[C@H]2C)cc1,inactive,inactive
Cc1ccc(S(=O)(=O)Nc2ccc3c(c2)C(=O)N([C@@H](C)CO)C[C@@H](C)[C@H](CN(C)Cc2ccc(Cl)c(Cl)c2)OCCCC[C@@H](C)O3)cc1,inactive,inactive
Cc1noc(C)c1S(=O)(=O)Nc1ccc2c(c1)C(=O)N([C@@H](C)CO)C[C@@H](C)[C@H](CN(C)C(=O)Nc1ccccc1)OCCCC[C@@H](C)O2,inactive,inactive
C[C@@H]1CN([C@H](C)CO)C(=O)c2cccc(NC(=O)C3CC3)c2O[C@@H]1CN(C)S(=O)(=O)c1cccs1,inactive,inactive
